“And” between values parts separate entries of the source, which are not always exact repeats. Equal entries are not always repeated. Among all 280,000 compounds or so, about 1,100 (0.39%) were called active. This list was built around the results that the source calls inconclusive (neither active nor inactive); the mix of calls is not that of the screen. Calls come from the whole dose curve; as a rule, active = well fitted inhibition curve with a large enough effect; inconclusive = small, poorly fitted or top-dose-only effect, or effect the other way; inactive = flat fitted curve, though single readings scatter. A potency beside an inconclusive call is a rough fit, not a confirmed value.
biological target: Microtubule-associated protein tau (Homo sapiens) (UniProt P10636); experiment: qHTS for Inhibitors of Tau Fibril Formation, Fluorescence Polarization; conditions: K18 P301L tau heparin fibrillization, Alexa594 FP, 6 h; series mostly up to 57.7 µM; activity, negative = inhibition: at the top concentration; note: nearly all actives have a fitted effect of over 55% in size
Chain of UniProt P10636 (P10636 whole entry, looked up, the tested form may be a part): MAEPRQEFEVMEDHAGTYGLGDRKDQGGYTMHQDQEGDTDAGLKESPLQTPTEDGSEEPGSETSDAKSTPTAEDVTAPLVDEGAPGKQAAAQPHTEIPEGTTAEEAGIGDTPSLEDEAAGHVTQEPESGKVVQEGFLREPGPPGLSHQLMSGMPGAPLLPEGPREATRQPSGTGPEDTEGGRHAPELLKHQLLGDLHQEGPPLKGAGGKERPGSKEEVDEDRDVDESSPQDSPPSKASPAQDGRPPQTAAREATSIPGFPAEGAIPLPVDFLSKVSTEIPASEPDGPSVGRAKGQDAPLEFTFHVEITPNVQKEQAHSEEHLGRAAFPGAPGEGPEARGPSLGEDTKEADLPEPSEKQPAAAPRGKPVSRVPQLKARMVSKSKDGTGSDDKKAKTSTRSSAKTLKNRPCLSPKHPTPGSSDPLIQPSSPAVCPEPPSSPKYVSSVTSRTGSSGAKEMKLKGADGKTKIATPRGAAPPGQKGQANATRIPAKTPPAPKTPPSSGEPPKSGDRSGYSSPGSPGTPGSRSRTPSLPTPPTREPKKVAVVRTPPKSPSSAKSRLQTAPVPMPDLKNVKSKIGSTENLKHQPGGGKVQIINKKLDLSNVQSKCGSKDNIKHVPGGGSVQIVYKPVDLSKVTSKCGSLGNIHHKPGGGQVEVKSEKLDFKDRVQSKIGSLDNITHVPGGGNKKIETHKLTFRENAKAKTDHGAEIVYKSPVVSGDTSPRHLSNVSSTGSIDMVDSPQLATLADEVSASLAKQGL
In short: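 Human K18 P301L fragment (15 uM unlabeled plus 0.24 uM Alexa 594-labeled) in 100 mM sodium acetate pH 7 with compound, aggregation induced by 20 uM heparin for 6 hr at 37 C. ThT (30 uM) added for 1 hr, then Alexa 594 FP read.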
% is set by controls: 0 for no effect and ±100 for the full control effect; potency is the fitted concentration of half-maximal effect; tags give direction and shape of the fitted curve.

Potency, inactive:
COc1c2occc2c(OC)c2c(=O)cc(C)oc12

Potency, active:
COCCCNC(=O)c1ccc(-n2c(-c3ccccc3)cc3c2CCCCC3)cc1 17.8 µM, Cc1c(N=C2C=CC(=O)c3ccccc32)c(=O)n(-c2ccccc2)n1C 7.94 µM, O=C(COCC(=O)Nc1cccc(C(F)(F)F)c1)Nc1cccc(C(F)(F)F)c1 11.2 µM

Potency, inconclusive:
C/C(CC(=O)Nc1cc(C)ccn1)=N\NC(=O)c1ccccc1C 44.7 µM [inhibitor, single point], CCC(=O)Nc1ccc(CC)cc1-c1nc2ccccc2n(CC(=O)c2ccc(OC)cc2)c1=O 12.6 µM [inhibitor, partial curve, poor fit], CCc1cccc(-n2c(=O)c3cccnc3n2CC(=O)Nc2ccc(OC)c(Cl)c2)c1 10 µM [inhibitor, partial curve], C/C(=N\Nc1ccc([N+](=O)[O-])cc1)c1ccc(N2CCOCC2)cc1 0.0355 µM [activator, full curve, poor fit], Cc1cc(-c2csc3nc[nH]c(=S)c23)cc(C)c1C 31.6 µM [inhibitor, single point], COc1ccc(-c2nn(-c3ccccc3)cc2C(=O)Nc2nccs2)cc1OC 20 µM [inhibitor, partial curve, poor fit], O=C1N=C(N2CCOCC2)S/C1=C/c1cc2c(cc1[N+](=O)[O-])OCO2 17.8 µM [inhibitor, partial curve], O=C(N/N=C/c1cccc(OC(=O)c2ccco2)c1)c1ccc(F)cc1 0.178 µM [inhibitor, full curve, poor fit], CN(C)S(=O)(=O)c1ccc(Nc2ccc(-c3ccc4c(c3)OCCO4)nn2)cc1 39.8 µM [inhibitor, single point], COCCn1c(C)cc(C2=NNC(=NC(C)(C)C)SC2)c1C 15.8 µM [inhibitor, partial curve], Cn1c(=O)c(Nc2ccc(O)cc2)c2c3c(cccc31)C(=O)c1ccccc1-2 39.8 µM [inhibitor, single point], O=C(Nc1ccc(Cl)cc1)Nc1nnc(CSc2ccc(Cl)cc2)s1 39.8 µM [inhibitor, single point], O=[N+]([O-])c1ccc(N2CCN(S(=O)(=O)c3ccc4ccccc4c3)CC2)cc1NCc1ccco1 39.8 µM [inhibitor, single point], S=C(NCCSCc1c(Cl)cccc1Cl)Nc1ccccc1 39.8 µM [inhibitor, single point], Cc1nn2cc(-c3ccc(N)cc3)nc2s1 0.355 µM [activator, full curve, poor fit], COc1cc(/C=C(\C#N)c2nc3c(s2)CC(C)CC3)ccc1O (stereo not drawn) 11.2 µM [activator, partial curve, poor fit], COc1cccc(CC(=O)Nc2ccc3nc(Nc4cccc(C(F)(F)F)c4)cc(C)c3c2)c1 44.7 µM [inhibitor, single point], O=C(COC(=O)c1cc(S(=O)(=O)N2CCc3ccccc3C2)ccc1Cl)NCc1ccco1 39.8 µM [inhibitor, single point], COc1ccccc1Nc1nc(N)nc(-c2cc3ccccc3o2)n1 39.8 µM [inhibitor, single point], Cc1ccc(C)c(N2CCN(C(=O)c3ccc(Cn4c(=S)[nH]c5ccc(N6CCOCC6)cc5c4=O)cc3)CC2)c1 0.316 µM [activator, full curve], CCc1cccc2c(C(=O)COC(=O)c3ccccc3)c[nH]c12 14.1 µM [inhibitor, partial curve], Fc1ccc(-c2cc3nc(-c4ccccc4)cc(N4CCN(CCN5CCOCC5)CC4)n3n2)cc1 28.2 µM [inhibitor, single point], COc1ccc(-c2csc3nc(-c4ccc(C)cc4)oc(=O)c23)cc1OC 10 µM [inhibitor, partial curve] and 3.16 µM [inhibitor, full curve], Cc1ccc(NC(=O)CSc2nc(N)c3cc4c(nc3n2)CCCC4)cc1 39.8 µM [inhibitor, single point], Clc1cccc(-n2ncc3c(NC4CCCCCC4)ncnc32)c1 0.891 µM [inhibitor, partial curve, poor fit], Cc1ccc(S(=O)(=O)CCC(=O)NCc2ccccc2)cc1 0.562 µM [inhibitor, single point], CCN(CC(=O)NCCc1ccccc1)S(=O)(=O)c1ccc(Br)cc1 44.7 µM [inhibitor, single point], COc1ccc(C(=O)Nc2ccc(Cl)c(S(=O)(=O)Nc3ccccc3OC)c2)cc1 12.6 µM [inhibitor, partial curve], NC(=O)c1c(NC(=O)c2cc(-c3ccc(F)cc3)on2)sc2c1CCCC2 39.8 µM [inhibitor, single point], Cc1cccc(NC(=O)Cn2nnc(C(=O)NCc3cccs3)c2N)c1 0.891 µM [inhibitor, full curve, poor fit], COc1cc(/C=N/Nc2nc3ccccc3[nH]2)cc(OC)c1O 14.1 µM [activator, single point], CCOC(=O)C1CCN(CCC(=O)Nc2cccc(Cl)c2C)CC1 7.08 µM [inhibitor, single point], CCC(C(=O)Nc1ccc(C(C)C)cc1)n1nc(C)n2c(cc3cc(C)ccc32)c1=O (stereo not drawn) 0.158 µM [inhibitor, full curve, poor fit], COc1cc2c(cc1OC)-c1cc(Nc3ccc4c(c3)OCCO4)nc(=O)n1CC2 1.78 µM [activator, partial curve, poor fit], COc1ccc(-c2ccc(C#N)c(OC(=O)c3c(Cl)cccc3Cl)n2)cc1 20 µM [inhibitor, single point], N#C/C(=C\c1c(N2CCOCC2)nc2ccccn2c1=O)S(=O)(=O)c1ccccc1 12.6 µM [inhibitor, single point], CCOC(=O)c1c(NC(=O)c2ccccc2C)sc2c1CC(C)(C)OC2 5.01 µM [inhibitor, partial curve], O=C1NC(=S)S/C1=C\c1ccc(SCc2ccco2)o1 15.8 µM [inhibitor, partial curve], CCOc1ccccc1C(=O)Nc1ccc(-n2nncc2-c2ccccc2)cc1 44.7 µM [activator, single point], O=C(NCc1ccc(Cl)cc1)c1ccc2c(c1)NC(=O)C(CS(=O)(=O)Cc1ccc(F)cc1Cl)N2 (stereo not drawn) 11.2 µM [inhibitor, partial curve], Cc1nn(-c2ccccc2)c(N2CCCC2)c1/C=N/NC(=O)c1cc(-c2cccnc2)nc2ccccc12 20 µM [activator, partial curve], Cc1ccc(C(=O)CSc2ncnc3ccccc23)o1 0.0282 µM [inhibitor, full curve, poor fit], FC(F)(F)c1cccc(NC(=S)Nc2cccc(Cl)c2)c1 39.8 µM [inhibitor, single point], CCN(CC)CCNc1cc(C)nc2c1C(=O)C(=O)C=C2N1CCCCC1 14.1 µM [inhibitor, partial curve]

activity, negative = inhibition, inactive:
O=C(NCc1ccccc1)c1nc2c(nnn2Cc2cccc(Cl)c2)c(=O)[nH]1 -2.22%, COc1ccc2oc(=O)c(/C(C)=N/Nc3ccccc3)cc2c1 -11.4%, COc1ccc2c(CCNC(=O)c3ccco3)c[nH]c2c1 3.83%, CN1CCN(NC(=S)Nc2ccc(OC(F)F)cc2)CC1 0.656%, CCC(=O)c1c[nH]c(C(=O)NCc2cccnc2)c1 3.99%, CCOc1ccc(CCNC(=O)c2nn(C)c3c2CSc2ccc(C)cc2-3)cc1OCC 7.98%, CCOC(=O)c1c(-n2c(C)cc(C=O)c2C)sc2c1CCCC2 8.61%, Cc1nc(CSc2ccc(Cl)cc2)cc(N2CCOCC2)n1 4.14%, O=C(/C=C/c1ccco1)NC(=S)Nc1ccc(Cl)cn1 -2.77%, NS(=O)(=O)c1cccc(NC(=O)c2cc3ccccc3o2)c1 -10%, CCOC(=O)c1ccc(NC(=O)CSc2ncc(S(=O)(=O)c3ccc(C)c(Cl)c3)c(=O)[nH]2)cc1 3.92%, CCn1c(CNC(=O)c2ccccc2F)nnc1SCc1nc2ccccc2c(=O)[nH]1 2.56%, CC1(C)Cc2ccccc2C(N/N=C/c2cccc(F)c2)=N1 4.35%, CCOC(=O)c1sc2nc3c(SCC(=O)O)cc(C(=O)c4ccccc4O)cn3c(=O)c2c1C 0.87%, CN1CCSc2ccc(C(=O)Nc3cc(F)ccc3F)cc21 16.7%, COc1ccc2[nH]c(-c3ccc(F)cc3F)cc(=O)c2c1 -0.319% [at 81.3 µM], CCOC(=O)c1ccc(NC2(c3ccccc3)C(=O)c3ccccc3C2=O)cc1 1.54%, N#Cc1c(N2CCOCC2)nc(-c2ccco2)c2c1CCCC2 0.0152%, CCC(C)Sc1oc(-c2ccco2)nc1S(=O)(=O)c1ccc(Cl)cc1 (stereo not drawn) -3.32%, O=C(CNC(=O)c1ccc(S(=O)(=O)N2CCCCC2)cc1)N/N=C/c1ccco1 -2.41%

— PubChem BioAssay AID1468 (National Center for Advancing Translational Sciences (NCATS), 2008)
